{"source": "the supplement of paper PMC9446081", "note": "Hit rate of the full screen: of about 39,000 compounds, about 220 (0.56%) showed activity. Some of the results follow.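 Further: static incubation at 37 °C against the wild-type strain, values averaged over two biological replicates.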"}
{"tested_on": "Escherichia coli K-12 BW25113", "test": "relative growth (OD600 normalised to plate interquartile mean) (fraction); higher = less growth inhibition, active = 0.2 or less", "details": "50 µM; LB; incubation time: overnight (16-24 h)"}
{"smiles": "CNC[C@@H]1OCCCC[C@@H](C)Oc2ccc(NC(=O)Nc3cccc4ccccc34)cc2C(=O)N([C@@H](C)CO)C[C@H]1C", "relative growth": "inactive: 1.01"}
{"smiles": "Cc1noc(C)c1S(=O)(=O)Nc1ccc2c(c1)C(=O)N([C@@H](C)CO)C[C@H](C)[C@@H](CN(C)Cc1ccc(C(F)(F)F)cc1)OCCCC[C@H](C)O2", "relative growth": "inactive: 1.02"}
{"smiles": "COc1ccc(CN(C)C[C@@H]2OCCCC[C@H](C)Oc3ccc(NC(=O)Nc4cccc5ccccc45)cc3C(=O)N([C@H](C)CO)C[C@@H]2C)cc1", "relative growth": "inactive: 0.956"}
{"smiles": "COc1ccc(S(=O)(=O)N(C)C[C@H]2Oc3ccc(NC(=O)c4ccncc4)cc3C(=O)N([C@@H](C)CO)C[C@H]2C)cc1", "relative growth": "inactive: 0.98"}
{"smiles": "COc1ccc(NC(=O)Nc2ccc3c(c2)C(=O)N([C@H](C)CO)C[C@@H](C)[C@H](CN(C)C(=O)c2ccccc2)OCCCC[C@@H](C)O3)cc1", "relative growth": "inactive: 1.01"}
{"smiles": "CCCOc1ccnc2c1c(=O)n(C)c(=O)n2C", "relative growth": "inactive: 1.05"}
{"smiles": "CCCc1cc(=O)oc2cc3occ(-c4ccccc4)c3cc12", "relative growth": "inactive: 1.01"}
{"smiles": "C[C@@H]1CCCCO[C@H](CN(C)C(=O)Nc2ccccc2)[C@@H](C)CN([C@H](C)CO)C(=O)c2cc(NC(=O)NC3CCCCC3)ccc2O1", "relative growth": "inactive: 0.993"}
{"smiles": "COc1ccc(C(=O)Nc2ccc(CN3C(=O)[C@]4(O[C@H](CCO)[C@@H]([Si](C)(C)F)[C@@H]4C)c4ccccc43)cc2)cc1", "relative growth": "inactive: 0.916"}
{"smiles": "COc1ccc(NC(=O)N(C)C[C@@H]2Oc3c(NC(=O)c4cnccn4)cccc3C(=O)N([C@H](C)CO)C[C@H]2C)cc1", "relative growth": "inactive: 1.01"}
{"smiles": "C[C@@H]1CN([C@H](C)CO)S(=O)(=O)c2ccc(-c3cccnc3)cc2O[C@H]1CN(C)CC1CCOCC1", "relative growth": "inactive: 0.978"}
{"smiles": "C[C@@H]1CCCCO[C@@H](CN(C)C(=O)Cc2ccccc2)[C@@H](C)CN([C@H](C)CO)C(=O)c2cc(NC(=O)Nc3cccc4ccccc34)ccc2O1", "relative growth": "inactive: 1.04"}
{"smiles": "C[C@@H]1CN([C@@H](C)CO)C(=O)Cc2cc(NS(=O)(=O)c3cccs3)ccc2O[C@@H]1CN(C)S(=O)(=O)c1ccc(F)cc1", "relative growth": "inactive: 1.01"}
{"smiles": "Cc1noc(C)c1NC(=O)N(C)C[C@@H]1Oc2ccc(NC(=O)C3CC3)cc2C(=O)N([C@@H](C)CO)C[C@H]1C", "relative growth": "inactive: 1.02"}
{"smiles": "C[C@@H]1CN([C@H](C)CO)C(=O)c2cc(NC(=O)Nc3ccc4c(c3)OCO4)ccc2O[C@@H](C)CCCCO[C@H]1CN(C)S(=O)(=O)c1cccs1", "relative growth": "inactive: 1.04"}
{"smiles": "Cc1ccccc1S(=O)(=O)N1C[C@@H](O)COC[C@H]2O[C@H](CC(=O)NCc3ccc(Cl)c(Cl)c3)CC[C@@H]21", "relative growth": "inactive: 0.995"}
